The antibiotic and cytotoxicity screens of Wong et al. (2023)
The list shows a part of the results.

What follows are compounds tested on HepG2 (assay: cytotoxicity call (relative viability < 0.9)). Conditions: 10 µM.
With NNC(=O)C1CCCC1 the cytotoxicity call was “inactive”.
With O=C(CCCCCCC(=O)Nc1ccccc1)NO the cytotoxicity call was “active”.
With COc1cccc(S(=O)(=O)Nc2ccc3c(c2)OC[C@H](C)N(C(=O)Cc2cccnc2)C[C@@H](C)[C@H](OC)CN(C)C3=O)c1 the cytotoxicity call was “inactive”.
For Cc1noc(C)c1NC(=O)Nc1ccc2c(c1)CC(=O)N([C@@H](C)CO)C[C@@H](C)[C@@H](CN(C)Cc1ccc(C(F)(F)F)cc1)O2, the cytotoxicity call was “inactive”.
For COc1cccc(NC(=O)N(C)C[C@@H]2Oc3cc(C#CC4(O)CCCC4)ccc3S(=O)(=O)N([C@H](C)CO)C[C@H]2C)c1, the cytotoxicity call was “inactive”.
In the case of C=CCNC(=O)[C@H]1[C@@H]2C(=O)O[C@@H](c3ccccc3)[C@@H](c3ccccc3)N2[C@@H](c2ccccc2OCCO)[C@]12C(=O)Nc1ccc(C#CC3=CCCCC3)cc12, the cytotoxicity call is reported as “inactive”.
In the case of CC(C)NC(=O)Nc1ccc2c(c1)CC(=O)N([C@@H](C)CO)C[C@H](C)[C@@H](CN(C)S(=O)(=O)c1cn(C)cn1)O2, the cytotoxicity call is reported as “inactive”.
C[C@@H]1CN([C@H](C)CO)C(=O)c2cc(NS(=O)(=O)c3ccccc3)ccc2O[C@@H](C)CCCCO[C@H]1CN(C)Cc1ccccc1 was tested, and the cytotoxicity call was “inactive”.

These compounds were tested on S. aureus RN4220 (assay: growth inhibition call (relative growth <= 0.2)). Conditions: 50 µM.
C[C@H](CO)N1C[C@H](C)[C@@H](CN(C)C(=O)Nc2ccc(C(F)(F)F)cc2)OCc2cnnn2CCCC1=O was tested, and the growth inhibition call was “inactive”.
O=C(C[C@@H]1C[C@@H]2c3cc(NC(=O)NC4CCCC4)ccc3O[C@@H]2[C@@H](CO)O1)NCc1ccc(Oc2ccccc2)cc1 was tested, and the growth inhibition call was “inactive”.
C[C@@H]1CN([C@H](C)CO)C(=O)Cc2cc(NC(=O)C3CC3)ccc2O[C@@H]1CN(C)C(=O)NC1CCCCC1 was tested, and the growth inhibition call was “inactive”.
With C[C@H]1CN([C@@H](C)CO)C(=O)CCCn2nncc2CO[C@@H]1CN(C)S(=O)(=O)c1ccc2c(c1)OCCCO2 the growth inhibition call was “inactive”.
With CC#CCO[Si](C#CCCCCCC)(C(C)C)C(C)C the growth inhibition call was “inactive”.
Cc1noc(C)c1NC(=O)Nc1ccc2c(c1)C(=O)N([C@H](C)CO)C[C@@H](C)[C@H](CN(C)S(=O)(=O)c1ccccc1)O2 was tested, and the growth inhibition call was “inactive”.
With Cc1o[nH]c(=O)c1CC[C@@H](N)C(=O)O the growth inhibition call was “inactive”.
In the case of Cc1noc(C)c1NC(=O)Nc1ccc2c(c1)CC(=O)N([C@H](C)CO)C[C@@H](C)[C@@H](CN(C)S(=O)(=O)c1cccs1)O2, the growth inhibition call is reported as “inactive”.
In the case of C[C@@H](CO)N1C(=O)[C@@H]2[C@H]3C(=O)OCCC=C[C@H]3O[C@]23C=CCN(CCN2CCOCC2)C(=O)[C@@H]13, the growth inhibition call is reported as “inactive”.
For CC(=O)N1C[C@@H](NC(=O)c2nccn2C)[C@@H]2OCCC[C@@H]21, the growth inhibition call was “inactive”.
COc1ccc(NC(=O)N(C)C[C@@H]2Oc3c(NS(=O)(=O)c4cn(C)cn4)cccc3C(=O)N([C@@H](C)CO)C[C@H]2C)cc1 was tested, and the growth inhibition call was “inactive”.
In the case of O=C(C[C@@H]1C=C[C@@H](NS(=O)(=O)c2ccc(F)cc2)[C@@H](CO)O1)N1CCC(Cc2ccccc2)CC1, the growth inhibition call is reported as “inactive”.
For O=C(Nc1cccnc1)c1nc2ncccn2n1, the growth inhibition call was “inactive”.
C[C@H](CO)N1C[C@H](C)[C@H](CN(C)C(=O)Nc2ccc3c(c2)OCO3)Oc2c(NC(=O)c3cnccn3)cccc2C1=O was tested, and the growth inhibition call was “inactive”.
COc1ccc(NC(=O)Nc2ccc3c(c2)C(=O)N([C@H](C)CO)C[C@@H](C)[C@@H](CN(C)Cc2ccc4c(c2)OCO4)OCCCC[C@@H](C)O3)cc1 was tested, and the growth inhibition call was “inactive”.
In the case of COc1ccc(S(=O)(=O)N(C)C[C@H]2OCCCC[C@H](C)Oc3ccc(NC(=O)Nc4c(C)noc4C)cc3C(=O)N([C@H](C)CO)C[C@H]2C)cc1, the growth inhibition call is reported as “inactive”.
In the case of COCC(=O)N1CC[C@]2(CC1)CN([C@H](CO)c1c2c2ccc(cc2n1C)OC)C(=O)Cc1ccccc1, the growth inhibition call is reported as “inactive”.
CC(C)NC(=O)[C@@H](C)n1ncn2cccc2c1=O was tested, and the growth inhibition call was “inactive”.
For C[C@H]1CN([C@@H](C)CO)C(=O)c2cc(-c3ccncc3)cnc2O[C@@H]1CN(C)S(=O)(=O)c1ccccc1, the growth inhibition call was “inactive”.
For C[C@H]1CN([C@@H](C)CO)C(=O)c2cc(NC(=O)CCCN(C)C)ccc2O[C@@H]1CN(C)C(=O)Nc1ccc(F)cc1, the growth inhibition call was “inactive”.
For C[C@H]1CN([C@@H](C)CO)C(=O)Cc2cc(NC(=O)CCC(F)(F)F)ccc2O[C@H]1CN(C)S(=O)(=O)c1ccccc1, the growth inhibition call was “inactive”.
With C[C@@H]1CN([C@H](C)CO)C(=O)c2cccc(NC(=O)Nc3ccc(F)cc3)c2O[C@@H]1CN(C)Cc1ccc(Oc2ccccc2)cc1 the growth inhibition call was “inactive”.
For C=CC[C@@H](CC(=O)N(CCO)Cc1ccccc1)C(=O)N[C@H](COC(=O)[C@@H](CC=C)Cc1ccc(F)cc1)C(C)(C)C, the growth inhibition call was “inactive”.
COc1ccc(CN(C)C[C@@H]2OCCCC[C@H](C)Oc3ccc(NC(=O)NC4CCCCC4)cc3C(=O)N([C@@H](C)CO)C[C@H]2C)cc1 was tested, and the growth inhibition call was “inactive”.
In the case of COCC(=O)N1C[C@@H](C)[C@@H](OC)CN(C)C(=O)c2cc(NC(=O)c3ccc(OC)cc3)ccc2OC[C@H]1C, the growth inhibition call is reported as “inactive”.
With NCC1CCSCC1 the growth inhibition call was “inactive”.
C[C@H]1CCCCO[C@@H](CN(C)Cc2ccc(C(=O)O)cc2)[C@@H](C)CN([C@@H](C)CO)C(=O)c2cc(NC(=O)Cc3ccccc3)ccc2O1 was tested, and the growth inhibition call was “inactive”.
C[C@@H]1CCCCO[C@H](CN(C)S(=O)(=O)c2cccs2)[C@@H](C)CN([C@H](C)CO)C(=O)c2cc(NC(=O)Cc3ccccc3)ccc2O1 was tested, and the growth inhibition call was “inactive”.
For CC(=O)Oc1ccc2c(C)cc(=O)oc2c1, the growth inhibition call was “inactive”.
In the case of C[C@H](CO)N1C[C@H](C)[C@@H](CN(C)C(=O)NC2CCCCC2)Oc2c(NC(=O)C3CC3)cccc2C1=O, the growth inhibition call is reported as “inactive”.
For C[C@@H]1CN([C@H](C)CO)C(=O)c2cccc(NC(=O)Nc3ccccc3)c2O[C@@H]1CN(C)C(=O)Nc1ccc(C(F)(F)F)cc1, the growth inhibition call was “inactive”.
With C[C@@H]1CCCCO[C@@H](CN(C)C(=O)CCCN(C)C)[C@H](C)CN([C@@H](C)CO)C(=O)c2cc(NC(=O)Nc3cccc4ccccc34)ccc2O1 the growth inhibition call was “inactive”.
In the case of NNC(=O)C1CCCC1, the growth inhibition call is reported as “inactive”.
O=C(CCCCCCC(=O)Nc1ccccc1)NO was tested, and the growth inhibition call was “inactive”.
With COc1cccc(S(=O)(=O)Nc2ccc3c(c2)OC[C@H](C)N(C(=O)Cc2cccnc2)C[C@@H](C)[C@H](OC)CN(C)C3=O)c1 the growth inhibition call was “inactive”.
Cc1noc(C)c1NC(=O)Nc1ccc2c(c1)CC(=O)N([C@@H](C)CO)C[C@@H](C)[C@@H](CN(C)Cc1ccc(C(F)(F)F)cc1)O2 was tested, and the growth inhibition call was “inactive”.
With COc1cccc(NC(=O)N(C)C[C@@H]2Oc3cc(C#CC4(O)CCCC4)ccc3S(=O)(=O)N([C@H](C)CO)C[C@H]2C)c1 the growth inhibition call was “inactive”.
C=CCNC(=O)[C@H]1[C@@H]2C(=O)O[C@@H](c3ccccc3)[C@@H](c3ccccc3)N2[C@@H](c2ccccc2OCCO)[C@]12C(=O)Nc1ccc(C#CC3=CCCCC3)cc12 was tested, and the growth inhibition call was “inactive”.
In the case of CC(C)NC(=O)Nc1ccc2c(c1)CC(=O)N([C@@H](C)CO)C[C@H](C)[C@@H](CN(C)S(=O)(=O)c1cn(C)cn1)O2, the growth inhibition call is reported as “inactive”.
For C[C@@H]1CN([C@H](C)CO)C(=O)c2cc(NS(=O)(=O)c3ccccc3)ccc2O[C@@H](C)CCCCO[C@H]1CN(C)Cc1ccccc1, the growth inhibition call was “inactive”.
